# Reference: PubChem BioAssay AID1508642 (National Center for Advancing Translational Sciences (NCATS), 2021)
# In all, about 43,000 compounds went through this assay and about 200 (0.47%) were called active. Another 12% or so got no clear call; they are omitted. Calls come from the whole dose curve; as a rule, active = well fitted cell-killing curve with a large enough effect; inconclusive = small, poorly fitted or top-dose-only effect, or effect the other way; inactive = flat fitted curve, though single readings scatter. Some of the results follow.
# Assay: Cell viability qHTS assay in S16 Pmp22-F2sN cells; note: nearly all actives have a fitted effect of over 65% in size
# Settings: S16 Pmp22-F2sN Schwann cells (luciferase reporters placed in the Pmp22 gene) viability, CellTiter-Glo, 24 h; series mostly up to 57.5 µM; activity change, negative = cytotoxicity: at the top concentration
# How it was run: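 Seed 500-1,000 S16 Pmp22-F2sN cells per well in phenol-red-free DMEM with 10% heat-inactivated FBS; pin-add 23 nL compound; incubate 24 h at 37C; add CellTiter-Glo, wait 15 min protected from light; read luminescence.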
# % is set by controls: 0 for no effect and ±100 for the full control effect.
row,Structure (SMILES),"activity change, negative = cytotoxicity"
1,CCc1ccccc1N1C(=O)N(Cc2cccc(Cl)c2)c2ccccc2S1(=O)=O,inactive: 1.21%
2,CCCNS(=O)(=O)c1cc(-c2nnc3c4ccccc4c(C)nn23)ccc1OC,inactive: 3.28%
3,CC(C)(C)OC(=O)N1CCC(c2c(C(=O)N3CCN(C(=O)c4ccco4)CC3)cnn2-c2ccc(Cl)cc2)CC1,inactive: 5.81%
4,Cc1ccc(Cl)cc1NC(=O)c1cccc(NC(=O)N2CCSc3ncccc32)c1,inactive: -4.84%
5,CCOc1ccc(NC(=O)C2CCCN(c3nnc(-n4c(C)ccc4C)s3)C2)cc1 (configuration not stated),inactive: 15.5%
6,CCc1ccc(NCc2cc3ccc(OC)cc3n(CC(=O)Nc3cccc(Cl)c3C)c2=O)cc1,inactive: 16.4%
7,Cc1ccc(C(=O)NCc2nnnn2-c2ccc(C)c(C)c2)cc1,inactive: -1.88%
8,Cc1ccc(N2C(=O)c3n[nH]c(C)c3C2c2ccc(C(C)C)cc2)cc1 (configuration not stated),inactive: 0.759%
9,COc1cccc(C(=O)Nc2ccccc2-c2nc(-c3ccc(C)cc3)no2)c1,inactive: 4.53%
10,CCOC(=O)c1c(S(=O)(=O)N2CCN(c3ccccc3OC)CC2)c(C)n(C)c1C,inactive: -10.8%
11,CCc1ccccc1NC(=O)CC(C)n1nc(C)cc1C (configuration not stated),inactive: 1.39%
12,O=c1c2cc3c(cc2n(Cc2cccc(F)c2)c(=O)n1Cc1nc(-c2ccccc2)no1)OCO3,inactive: 14.8%
13,CC(=O)c1cccc(NC(=O)c2sc3nc4c(cc3c2N)CCCC4)c1,inactive: 11.6%
14,COc1cc(OC)c(NC(=O)NCc2ccc3c(c2)CCN3C(C)=O)cc1Cl,inactive: 18.1%
15,c1ccc(N2CCN(c3ncnc4[nH]ncc34)CC2)cc1,inactive: -0.221%
16,O=C(CC1N=C2c3ccccc3N=C(SCc3cccc(Cl)c3)N2C1=O)NC1CCCCC1 (configuration not stated),inactive: 3.16%
17,COc1cc(OC)c(NC(=O)c2nc(-c3ccncc3)no2)cc1Cl,inactive: 1.72%
18,COc1ccc(NC(=O)CSc2nnc(-c3nnn(-c4ccc(F)cc4)c3C)o2)cc1,inactive: 7.69%
19,CCCCCNC(=O)C1CCC(Cn2c(=O)c3sccc3n(CC(=O)N3CCCC3)c2=O)CC1 (configuration not stated),inactive: -11.6%
20,Cc1cccc(-c2noc(-c3ccc(NC4CCCC4)c([N+](=O)[O-])c3)n2)c1,inactive: 10.1%
21,Cc1ccc(OCC(=O)Nc2cccc(C(=O)OCc3cc(=O)n4cc(C)sc4n3)c2)cc1,inactive: 0.531%

row,Structure (SMILES),"activity change, negative = cytotoxicity"
1,Cc1ccc(Cl)cc1-n1c(=O)cc(N2CCN(c3ccccc3)CC2)[nH]c1=O,inactive: 2.37%
2,Cc1cc2n(n1)CCCN2C(=O)Nc1ccccc1F,inactive: 2.15%
3,Cn1c(=NC(=O)c2ccc(F)cc2)sc2cc(Br)ccc21,inactive: -3.72%
4,CCOCN(C(=O)Cn1c(C)nc2ccccc21)c1c(C)cccc1CC,inactive: -2.49%
5,Cc1ccc(C(=O)Nc2nnc(SCc3cc(=O)c4c(C)ccc(C)c4[nH]3)s2)cc1,inactive: -10.3%
6,O=C(C1COc2ccccc2O1)N(Cc1cccnc1)c1nc2c(F)cc(F)cc2s1 (configuration not stated),inactive: 3.69%
7,O=C(Nc1ccc2nn(-c3ccc(F)cc3)nc2c1)c1cccc2c(Cl)cccc12,inactive: -0.804%
8,COc1cccc(C(=O)N2CCC(c3nc4ccccc4s3)CC2)c1,inactive: 7.79%
9,CCOc1ccccc1NC(=O)c1ccc2c(c1)CCCN2S(C)(=O)=O,inactive: 1.28%
10,COCCNc1cc(N2CCN(C3CCCCC3)CC2)c2noc3c2c1C(=O)c1ccccc1-3,inactive: -8.39%
11,COC(=O)c1cccc(Nc2c(-c3cc(Br)ccc3O)nc3nc[nH]n23)c1,inactive: -18.8%
12,Cc1cc(C)cc(OCC(=O)Nc2ccc(-c3nc4ncccc4o3)cc2C)c1,inactive: 18.6%
13,CCc1nnc(SCc2nc(-c3ccccc3F)oc2C)c2cc3sccc3n12,inactive: 4.93%
14,Cc1ccc(Cl)cc1N1CCN(C(=O)c2c(C)oc3ncnc(N4CCOCC4)c23)CC1,inactive: -5.07%
15,O=C(CSc1nnc(-c2cccs2)o1)Oc1ccc(Cl)cc1,inactive: 4.94%
16,CCCCNC(=O)C1CCCN(c2nnc(C)c3c(C)n(-c4ccc(Cl)cc4)nc23)C1 (configuration not stated),inactive: -4.77%
17,COc1cc2c(=O)c(S(=O)(=O)c3ccc(C)cc3)cn(Cc3cccc(C)c3)c2cc1OC,inactive: -6.49%
18,CC1CN(C(=O)N2CCC(C(=O)NCCC3=CCCCC3)CC2)c2ccccc2O1 (configuration not stated),inactive: 13%
19,CCOC(=O)C1(C)C=C(Nc2ccc(C)cc2)C(=O)N1c1ccccc1 (configuration not stated),inactive: -0.226%
20,CC(=O)c1ccc(NC(=O)CSc2nccn2Cc2ccco2)cc1,inactive: 4.97%
21,CSc1cccc(NC(=O)C2CCN(S(=O)(=O)c3ccc4[nH]c(=O)ccc4c3)CC2)c1,inactive: 20.4%

row,Structure (SMILES),"activity change, negative = cytotoxicity"
1,CCCC(=O)Nc1ccc(NC(=O)c2sc3ccccc3c2Cl)cc1,inactive: 14%
2,COc1ccc(C(=O)N2CCN(C(=O)COc3ccc(Br)cc3)CC2)cc1OC,inactive: -3.41%
3,Cc1cc2c(cc1C)C(c1cccc(OC(C)C)c1)CC(=O)N2 (configuration not stated),inactive: 17.8%
4,CCCCN(C)CCCNC(=O)Cn1nc(CC)n2c(cc3sc(C)cc32)c1=O,inactive: 1.94%
5,COc1ccc(NC(=O)CN(c2cccc(C)c2C)S(=O)(=O)c2ccccc2)cc1OC,inactive: -1.33%
6,CCOC(=O)CSC1=Nc2ccccc2C2=NC(CCC(=O)NCc3ccccc3)C(=O)N12 (configuration not stated),inactive: 3.02%
7,Cc1ccc(CNC(=O)C(=O)NCC(c2cccs2)S(=O)(=O)c2cccs2)cc1 (configuration not stated),inactive: 10.3%
8,CC(C)(C)OC(=O)N1CCC(c2c(C(=O)Nc3ccc4c(c3)OCO4)cnn2-c2ccc(F)cc2F)CC1,inactive: -20.5%
9,COc1ccc(NC(=O)/C(C#N)=C/c2ccc(C)o2)cc1,inactive: -6.84%
10,CCc1ccc2occ(CC(=O)Nc3c(C(=O)Nc4ccc(Cl)cc4)oc4ccccc34)c2c1,inactive: 0.0301%
11,CN(C)c1ccc(NC(=O)Cn2c(SCc3ccc(F)cc3)nc3cccnc32)cc1,inactive: 0.529%
12,Cc1ccccc1Cn1c(=O)n(CCCCC(=O)NCCc2ccccc2)c(=O)c2ccccc21,inactive: 19.6%
13,CCc1ccc(NC(=O)CSC2=Nc3ccccc3C3=NC(CC(=O)NCc4ccc5c(c4)OCO5)C(=O)N23)cc1 (configuration not stated),inactive: -14%
14,CCSc1nc2c([nH]c3ccccc32)c(=O)n1-c1ccc(OC)cc1,inactive: 15.2%
15,O=C(O)CCCC(=O)N1CCc2cc(S(=O)(=O)NCc3ccccc3)ccc21,inactive: -5.28%
16,Cc1cccc(NC(=O)CCNS(=O)(=O)c2ccc3c(c2)CCCC(=O)N3)c1C,inactive: 13.2%
17,CCOC(=O)c1[nH]c2c(c1Cc1ccccc1)C(=O)CC(c1ccc(OC)cc1)C2 (configuration not stated),inactive: 0.654%
18,CC1CCCN(c2ncnc3c2nc2n3CCCCC2)C1 (configuration not stated),inactive: 0.407%
19,CN(C)c1ccc(CNc2nc(-c3ccco3)nn2S(C)(=O)=O)cc1,inactive: -10.6%
20,c1coc(-c2nc3ccccn3c2Nc2ccc3c(c2)OCCO3)c1,inactive: -2.23%
